{
  "source": "PubChem BioAssay AID488969",
  "about": "(Vanderbilt High Throughput Screening Facility, 2010)",
  "note": "Whole data set: some 110,000 compounds, median “z-score” near -0.1, cut for the highest 2% near 2. The list shows a part of the results.",
  "data": [
    {"target": "Metabotropic glutamate receptor 8 (Rattus norvegicus) (UniProt P70579)", "sequence (P70579 whole entry, looked up)": "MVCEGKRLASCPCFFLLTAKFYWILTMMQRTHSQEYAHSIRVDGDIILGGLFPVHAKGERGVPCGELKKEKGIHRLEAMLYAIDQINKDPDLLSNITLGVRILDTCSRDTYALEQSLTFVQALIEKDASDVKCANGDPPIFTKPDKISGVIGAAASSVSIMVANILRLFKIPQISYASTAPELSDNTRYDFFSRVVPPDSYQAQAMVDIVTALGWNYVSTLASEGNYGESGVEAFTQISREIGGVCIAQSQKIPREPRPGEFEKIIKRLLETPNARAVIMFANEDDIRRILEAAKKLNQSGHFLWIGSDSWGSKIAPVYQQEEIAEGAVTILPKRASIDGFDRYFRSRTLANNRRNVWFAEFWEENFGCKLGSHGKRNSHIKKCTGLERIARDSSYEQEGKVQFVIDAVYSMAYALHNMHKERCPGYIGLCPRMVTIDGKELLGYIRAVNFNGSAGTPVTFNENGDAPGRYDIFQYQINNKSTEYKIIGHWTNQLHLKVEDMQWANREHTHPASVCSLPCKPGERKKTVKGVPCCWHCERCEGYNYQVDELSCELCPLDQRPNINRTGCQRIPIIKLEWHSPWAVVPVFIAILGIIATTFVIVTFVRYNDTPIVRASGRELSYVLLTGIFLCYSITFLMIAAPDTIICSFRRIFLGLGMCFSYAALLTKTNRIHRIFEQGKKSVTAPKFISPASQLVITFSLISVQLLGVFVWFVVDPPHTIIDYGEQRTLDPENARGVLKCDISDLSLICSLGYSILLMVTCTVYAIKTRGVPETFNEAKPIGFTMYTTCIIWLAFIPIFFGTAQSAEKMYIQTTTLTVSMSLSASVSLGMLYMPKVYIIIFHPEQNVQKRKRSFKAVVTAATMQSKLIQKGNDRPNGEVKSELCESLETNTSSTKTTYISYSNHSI", "test": "mGluR8 Gi/Go-coupled signaling modulation – cell-based, rat, thallium flux, HTS, primary screen (AID 488969)", "conditions": "HEK293 rat mGluR8, GIRK (G protein-gated inwardly rectifying potassium channel) thallium flux, FluoZin2; at 10 µM; stronger effect = higher value; submaximal glutamate (EC20) added with thallium", "values": [
      {"smiles": "CC(C)C(=O)N1C2CCC1CC(O)(c1ccc(F)cc1)C2", "note": "(configuration not stated)", "z-score": -0.705},
      {"smiles": "CCCOc1ccc(CSc2nnc(CCC)n2N)cc1", "z-score": -0.749},
      {"smiles": "COCCNS(=O)(=O)c1ccc(-c2ccc(C)cc2)cc1", "z-score": -0.0903},
      {"smiles": "O=C1CC(C(=O)Nc2ccccc2C(=O)O)C(c2ccccc2)O1", "note": "(configuration not stated)", "z-score": -0.72},
      {"smiles": "COc1ccccc1NC(=O)c1ccc(NC(=O)CSc2nnnn2C)cc1", "z-score": 1.11},
      {"smiles": "O=C(NC1CCCC1)C1CCCN1C(=O)Nc1ccccc1", "note": "(configuration not stated)", "z-score": 0.644},
      {"smiles": "CCOC(=O)c1nnn(-c2nonc2N)c1CN(CC)CC", "z-score": -0.751},
      {"smiles": "COc1ccc(C2=NN(C(=O)CSc3ncccn3)C(c3ccc(OC)cc3)C2)cc1", "note": "(configuration not stated)", "z-score": -0.254},
      {"smiles": "Cc1cc(C)nc(NC(=O)c2cccc([N+](=O)[O-])c2C)n1", "z-score": 0.168},
      {"smiles": "CCCCC(C(=O)OCC(=O)c1ccc(OC)cc1)N1C(=O)c2ccccc2C1=O", "note": "(configuration not stated)", "z-score": -0.667},
      {"smiles": "CCOc1ccc(/C=N/OCC(=O)Nc2cc(C)on2)cc1", "z-score": -0.838},
      {"smiles": "CCn1nc(C(=O)Nc2nc3ccc(C)cc3s2)c2ccccc2c1=O", "z-score": 0.218},
      {"smiles": "Cc1cc2ccccc2nc1Br", "z-score": 0.061},
      {"smiles": "CS/C(=N\\S(=O)(=O)c1ccc(Cl)cc1)c1ccccc1", "z-score": -0.184},
      {"smiles": "CCNc1ccccc(C(=O)/C=C/c2ccc3c(c2)OCO3)c1=O", "z-score": -0.677},
      {"smiles": "CCn1ncc(C2=NOC(C(=O)N3CCN(c4ccccc4)CC3)C2)c1C", "note": "(configuration not stated)", "z-score": -0.631},
      {"smiles": "Cc1ccccc1NC(=S)NCc1ccc(Cl)cc1", "z-score": 0.236},
      {"smiles": "COc1ccccc1N1CCN(C(=O)c2ccc([N+](=O)[O-])s2)CC1", "z-score": -0.268},
      {"smiles": "O=C(O)CNC(=O)c1ccc(OC(F)F)cc1", "z-score": -1.34},
      {"smiles": "Nc1nc(SC2c3cccc4cccc(c34)C2NS(=O)(=O)c2ccccc2)n[nH]1", "note": "(configuration not stated)", "z-score": -0.0228},
      {"smiles": "CCOC(=O)c1c(C)c(C(=O)Nc2cc(F)ccc2F)c(C)n1C", "z-score": -0.35},
      {"smiles": "COCCn1c(C)cc(C2=NNC(=Nc3ccccc3F)SC2)c1C", "z-score": 0.0839},
      {"smiles": "CC(=O)N1N=C(c2ccc(C(C)(C)C)cc2)OC1(C)C", "z-score": -0.0401},
      {"smiles": "CS(=O)(=O)N(CC(=O)N1CCN(c2ccccc2F)CC1)c1ccc2c(c1)OCCO2", "z-score": -0.153},
      {"smiles": "O=c1c2ccccc2nc(SCc2nnc(-c3ccccc3Br)o2)n1Cc1ccco1", "z-score": 0.167},
      {"smiles": "O=C1c2cccc3c([N+](=O)[O-])ccc(c23)C(=O)N1c1nccs1", "z-score": -0.298},
      {"smiles": "O=C(Cc1cccs1)Nc1nnc(SCC(=O)N2CCCCC2)s1", "z-score": 0.305},
      {"smiles": "CC(=O)Nc1cccc(OCC(=O)NS(=O)(=O)c2ccc(Cl)cc2)c1", "z-score": 0.0496},
      {"smiles": "CN(C)S(=O)(=O)c1ccc(NC(=O)c2cccnc2)cc1", "z-score": -0.0468},
      {"smiles": "CCOC(=O)/C(C#N)=C/Nc1ccccc1OC", "z-score": -0.38},
      {"smiles": "O=C(CNC(=O)c1ccccc1)Nc1cccc(C(F)(F)F)c1", "z-score": -0.0648},
      {"smiles": "COc1ccc(-c2ccc(S(=O)(=O)N3CCOCC3)cc2)cc1", "z-score": 0.279}
    ]}
  ]
}
